Test results as given in the supplement of paper PMC5499739.
Whole data set: some 16,000 sequences, median “Z-score” near -0.37, cut for the highest 2% near 3.2. The list shows a part of the results.

Test system: RBM10 RRM1-ZnF (GST-tagged construct)
Assay: RNAcompete 7-mer binding Z-score; higher = stronger binding preference
Summary of the method: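 Each heptamer motif was given a one-sided Z-score for enrichment across the probes that contained it. GST-tagged RBM10 constructs (20 pmol) were combined with 1.5 nmol of a designed pool of 241 399 RNAs of up to 41 nt, transcribed from microarray-derived DNA templates. Binding took place in 1 ml Hepes pH 7.8 buffer containing KCl, NaCl, glycerol, DTT, BSA and glutathione Sepharose beads for 30 min at 4°C. After four 2-min washes at 4°C, bound RNA was identified by microarray hybridisation.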

Sequence | RNAcompete 7-mer binding Z-score
AGGUAGC | 0.803
AGCGAUC | -0.337
ACCUACG | -0.701
UUAUGUG | -0.00246
GCGGUGC | 0.884
AAAUGUG | 0.501
CGGUUUG | 0.508
GAUCGUC | -0.558
UAAGACG | 0.17
GGUUGUG | 2.29
CGUCACG | -0.464
CUGAAUG | -0.285
CGAUAGU | -0.272
CAAGUAC | -0.642
GCGCGUU | -0.318
GCCUCCA | -0.743
UAGGACA | 1.11
CACAAGA | -0.548
CUUUAGA | -0.704
ACCGAUG | -0.347
GCCUGAA | -0.623
AGAGCUG | 0.163
GUGGGGG | 4.47

Sequence | RNAcompete 7-mer binding Z-score
UUAGUCU | -0.662
UCGUAUC | -0.672
GAGCGCC | -0.402
CUACCGU | -0.753
CCUCUAU | -0.769
AGACAAC | -0.552
GUUUCCA | -0.561
UUAACGU | -0.324
AACGACC | -0.626
CAGGGUU | 2.15
UCGUAGA | -0.318
GAGACUG | -0.00571
AACGGGC | 2.01
UAUGCCG | -0.733
GCAUCGC | -0.47
AACCGAG | -0.168
CGCGCGA | -0.168
CUGAGUU | -0.389
UGACCUC | -0.805
AGGGGUG | 3.85
GGGUUUG | 3.12
CGUCCAG | -0.47
CAUGCCG | -0.714

Sequence | RNAcompete 7-mer binding Z-score
CUUUUGC | -0.98
ACACUUA | -0.665
CCUCGUC | -0.623
UGACAAU | -0.149
AGCUUUU | -0.698
GACUUAU | -0.6
GCAGAGG | 2.29
UGAGCCG | -0.201
UUCACGU | -0.678
UCAUGUA | -0.272
CCGAAAA | -0.629
AAAGGUU | 3.12
CUUUGGG | 0.654
UGGGCGA | 2.53
GAGGGCC | 0.696
CUACAUU | -0.87
CAUCGGU | -0.178
AGCUGCC | -0.672
UUUCAAG | -0.639
AGAGGAA | 2.29
UCGACCC | -0.548
AUAAAAU | -0.474
AGUCUUG | -0.483

Sequence | RNAcompete 7-mer binding Z-score
AGGGCCA | 0.215
GCGAAGC | 0.0918
CGCUACU | -0.61
GAUUCCU | -0.727
GUCGGGC | 0.81
UCGGUCG | -0.0837
UGAGUAU | -0.0837
UUACCGA | -0.529
GCCGAGA | -0.275
UAUUCCA | -0.769
GGAACAC | 0.829
GUUAUGC | -0.331
AAUUACA | -0.555
ACGCAGU | -0.37
AUUGACG | -0.275
AUGCGAG | 0.569
CGGCCCG | -0.441
CUUACAA | -0.662
GAUGACG | 0.654
CACUGGU | -0.0934
CAGGUGA | 1.49
AAGCGAA | 0.056
CGCGCAC | -0.35

Sequence | RNAcompete 7-mer binding Z-score
GCAGUGU | 0.218
GGAUAGA | 2.61
GUCAGUC | -0.256
UAACCCU | -0.815
AGAAGCC | -0.733
UUCGAUU | -0.691
UAAAUCC | -0.789
CCCUCAU | -0.779
CCCAUUA | -0.954
GUAGGCG | 1.89
UUCAUCC | -0.902
CUGAAAC | -0.561
GGAUUGC | 1.16
AGCACCC | -0.49
GGAUAGG | 4.11
GCUGGAC | 0.228
GAACGGC | 0.693
ACUACGC | -0.642
AUGGCCC | -0.34
AGUUGUA | -0.0642
CAAUGUC | -0.75
UUGCCCU | -0.617
AAUUGAU | -0.194

Sequence | RNAcompete 7-mer binding Z-score
CCAACAC | -0.5
CAACAGA | -0.168
ACUACAC | -0.506
GCCGUAA | -0.555
CUUAACG | -0.655
ACGCACA | -0.448
GGAGUGU | 2.48
GCGGAAG | 1.81
ACUAUAC | -0.642
CUCUGAC | -0.72
CCAAGGU | 0.257
UCUUUUA | -0.782
GCAUUAU | -0.353
GUUCUAA | -0.552
UGCAGAG | 0.482
GCCAUCA | -0.678
AGUUUGU | -0.223
GGCUAUU | -0.233
CUCAAAA | -0.675
GUCGCUC | -0.425
ACCUGGA | -0.366
UUCUGCU | -0.867
GCAGGGA | 2.92

Sequence | RNAcompete 7-mer binding Z-score
CCGUUAG | -0.415
UAUGUCA | -0.282
GAGUGUC | 0.0333
CCUUACU | -0.886
GGCAUUC | -0.298
UUCUAAC | -0.73
CCUGCCG | -0.444
CUGUGUC | -0.61
GAGAACC | -0.275
UGGUCCU | -0.376
AAACUGC | -0.617
UAAUUAC | -0.649
CUGGGCG | 1.15
ACGGCAU | 0.153
CACGACU | -0.61
AGCGCCA | -0.262
GGUUAUG | 1.69
GACGUUC | -0.74
CGAGUGA | 0.381
AAUGCUU | -0.678
UGCCCAC | -0.383
UGAGGAU | 1.81
AUCUAAA | -0.451

Sequence | RNAcompete 7-mer binding Z-score
ACAGGUG | 1.91
AUUGUGU | -0.363
GGAGUUA | 1.66
CUCCAGU | -0.714
CUUUAUU | -0.811
GAGCGCA | -0.00246
CUCACCC | -0.646
AGAUAAC | -0.49
GGGACGC | 1.06
UGGUUGC | 0.758
UCGUUUG | -0.243
UCAUAAA | -0.552
GCUACCU | -0.766
GGGACCC | 0.797
ACAUCGA | -0.48
UCAACUA | -0.737
ACCUGCC | -0.834
GCGUGUG | 0.621
GUGCCAG | 0.131
UUGAUAU | -0.379
GCGAUGU | 0.254
UGUCCAC | -0.558
